Some of the results follow. Further columns of the screen follow, without active or inactive calls. The list favours compounds with an active or inconclusive main result. Potencies come from curve fits of mixed quality, noted in brackets.
Tags give direction and shape of the fitted curve.

This assay is described as follows: Natriuretic polypeptide receptor (hNpr1) antagonism - Confirmation. Note: nearly all actives have a fitted effect of over 70% in size. Particulars: HEK293 hNpr1 cGMP GloSensor luminescence, ANP-stimulated; measured here: HEK-hNpr1 cytotoxicity, CellTiter-Glo. The method, boiled down: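 HEK293 cells expressing hNpr1 and the pGS-40F GloSensor cGMP sensor, loaded with 2% GloSensor reagent for 2 h, then treated 30 min with compound at room temperature. Luciferase luminescence read before and 20 min after 0.1 nM hNppA stimulation.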
For orientation: In ATP-based viability assays light output follows the ATP content of the culture.
As for `CN(C)c1cccc(C(=O)N2CCC(OCCOc3ccc(F)cc3)CC2)c1`, the CC50 was 21.7 µM [falling, partial curve]. With `Nc1ncccc1CN1CCC2(CC1)COCCN2C(=O)OCc1ccccc1` the figure was 12.5 µM [falling, partial curve]; with `COc1ccc(C(=O)N2CCC3(CC2)N=C(c2ccc(Br)cc2)NO3)cc1OC`, 12.2 µM [falling, partial curve].

In the case of `CCc1noc(-c2cn(C3CCN(C(=O)c4ccc(C(C)(C)C)cc4)C3)nn2)n1` (stereo not given), the CC50 is 24.3 µM [falling, partial curve].

Turning to `CC(C)CN[C@H]1CO[C@H]2[C@@H]1OC[C@@H]2Nc1nccc(-c2cccs2)n1`, the half-maximal cytotoxic concentration (CC50) is 31.4 µM [falling, partial curve]. With `CCOc1ccc(NC(=O)CCC2CCN(c3cc(NC4CC4)ncn3)CC2)cc1` the figure was 19.3 µM [falling, partial curve].

As for `O=C1c2cnc(-c3ccncc3)nc2OCCN1Cc1ccc(F)cc1F`, the CC50 was 28 µM [falling, partial curve].

On to `Cc1cc(F)cc(CN2CCc3nc(C(=O)NCC4CC4)oc3CC2)c1`, for which the CC50 was 28 µM [falling, partial curve]. With `c1ccc(CNC[C@H]2COCc3nc4ccccc4n32)cc1` the figure was 25 µM [falling, partial curve]; with `Cc1ccc(OCC(=O)N2CCC(Cc3nc(-c4ccc(F)cc4)no3)CC2)cc1`, 15.3 µM [falling, partial curve].

Turning to `O=C(c1ccc(F)cc1Cl)N1CCC(Cc2nc(-c3ccc(F)cc3)no2)CC1`, the CC50 was 4.85 µM [falling, full curve].

As for `COc1ccc(-c2noc(CC3CCN(C(=O)CCc4cccc(OC)c4)CC3)n2)cc1`, the cytotoxic concentration (CC50) was 24.3 µM [falling, partial curve].

`O=C(c1csc(N2CCN(c3ccccc3)CC2)n1)N1CCN(c2ccccn2)CC1`: the CC50 was 24.3 µM [falling, partial curve]. On to `COc1ccc(C(=O)N2CCC3(CC2)N=C(c2ccc(Cl)cc2)NO3)cc1OC`, for which the CC50 is 15.3 µM [falling, partial curve]. With `COc1ccc(CC(=O)N2CCC(Cc3nc(-c4ccc(F)cc4)no3)CC2)cc1OC` the figure was 8.62 µM [falling, partial curve]. With `O=C(c1ccc(F)cc1F)N1CCC2(CC1)N=C(c1ccc(Cl)cc1)NO2` the figure was 24.3 µM [falling, partial curve]; with `Cn1cc(-c2cccc(O)c2)c2nc(COc3ccc(Cl)cc3)cn2c1=O`, 39.6 µM [falling, partial curve]; with `O=C(CC1CCCCC1)N1CCC(Cc2nc(-c3ccc(F)cc3)no2)CC1`, 12.2 µM [falling, partial curve]. With `O=C1COc2ccc(NCCOc3ccccc3)nc2CN1Cc1ccccc1F` the figure was 35.3 µM [falling, partial curve]; with `CCC(C)NC(=O)N1CC(Oc2ccc(-c3nc(-c4ccccc4)no3)cc2)C1` (stereo not given), 1.72 µM [falling, full curve]. Turning to `COc1ccc(CN2C[C@@H](F)[C@@H](OCc3nc4ccc(C(F)(F)F)cc4[nH]3)C2)cn1`, the 50% cytotoxic concentration (CC50) is 31.4 µM [falling, partial curve]. For the compound `CCc1ccc(C(=O)N2CCN(c3cc(-c4ccc(F)cc4)[nH]n3)CC2)cc1`, the CC50 was 30.6 µM [falling, single point]. With `Cc1ccc2nc3n(c2c1)[C@@H](CNCc1ccc2c(c1)OCO2)COC3` the figure was 31.4 µM [falling, partial curve]; with `Cc1ccc(C(=O)N2CCC(Cc3nc(-c4ccccc4)no3)CC2)s1`, 17.2 µM [falling, partial curve]; with `Cc1cccc(-c2cnc3[nH]cc(CC(=O)N4CCOCC4)c3c2)c1`, 31.4 µM [falling, partial curve].

For `CCOc1ccc(C(=O)N2CCC(Cc3nc(-c4ccc(F)cc4)no3)CC2)cc1OCC`, the 50% cytotoxic concentration (CC50) is 3.43 µM [falling, full curve]. With `CC(=O)Nc1ccc(C(=O)N2CCC3(CC2)N=C(c2ccc(Cl)cc2)NO3)cc1`, the CC50 was 17.2 µM [falling, partial curve]. With `CN(Cc1cccnc1)c1ccc2ncc(Nc3ccc(C(F)(F)F)cc3)n2n1` the figure was 22.2 µM [falling, partial curve]; with `COc1cc(NC(=O)c2cc3n(n2)CC(c2ccc(Br)cc2)OC3)cc(OC)c1OC` (stereo not given), 24.3 µM [falling, partial curve]. On to `O=C(Cc1ccsc1)N1CCC(Cc2nc(-c3ccc(F)cc3)no2)CC1`, for which the half-maximal cytotoxic concentration (CC50) is 7.69 µM [falling, full curve]. Take `COc1ccc2nc3n(c2c1)[C@@H](CNCc1ccc(C(F)(F)F)cc1)COC3`: the CC50 was 35.3 µM [falling, partial curve]. In the case of `Cc1ccccc1C(=O)N1CCN(c2cc(-c3ccc(Cl)cc3)[nH]n2)CC1`, the 50% cytotoxic concentration (CC50) was 21.7 µM [falling, partial curve].

Turning to `O=C1Nc2ccccc2OCC12CCN(Cc1ccc(C(F)(F)F)cc1)CC2`, the CC50 was 21.7 µM [falling, partial curve].

Turning to `OC1CC(c2cc(NCCCn3ccc4ccccc43)ncn2)C1` (stereo not given), the half-maximal cytotoxic concentration (CC50) was 19.3 µM [falling, partial curve, poor fit]. Turning to `COc1ccc(-c2noc(CC3CCN(C(=O)c4ccccc4OC)CC3)n2)cc1`, the cytotoxic concentration (CC50) is 13.7 µM [falling, partial curve].

`O=C(c1ccc(C(F)(F)F)cc1)N1CCC2(CNc3ccccc3[S+](=O)([O-])N2)C1` (stereo not given): the CC50 is 24.3 µM [falling, partial curve].

For the compound `O=C(CCCc1c[nH]c2ccccc12)N1CCC(c2noc(COc3ccc(F)cc3)n2)CC1`, the CC50 is 21.7 µM [falling, partial curve]. With `COc1ccc(C2Cn3nnc(C(=O)N4CCN(C(=O)Cc5ccccc5C)CC4)c3CO2)cc1` (stereo not given) the figure was 19.3 µM [falling, partial curve]; with `O=C(Cc1c[nH]c2ncc(-c3ccccc3C(F)(F)F)cc12)N1CCOCC1`, 19.8 µM [falling, partial curve]. With `COC(=O)c1cccc(C(=O)N2CCC(Cc3nc(-c4ccc(OC)cc4)no3)CC2)c1` the figure was 10.9 µM [falling, partial curve].

Usually CC50 stands for the concentration at which the toxic effect on the cells reaches its halfway point. A lower CC50 goes with greater toxicity to the cells.

The record behind these values is PubChem BioAssay AID1347044 (National Center for Advancing Translational Sciences (NCATS), 2019).
